Read counts are not given, so values of variants with three or more changes are uncertain.

The chains are these.
B1: LINE1-mini (parent)
chain: GGCAGAGCUCAACACAGCGUGGCAAAGUGGCUGUGGCUAGACUGCC

Variants of B1 are the subject of the data set. Kind of data set: self-cleavage, relative activity (ratio to wild type); higher = more cleavage; in vitro, sequencing; the parent is a self-cleaving ribozyme.
For G2C G7U C18A G29A A39U C42A, the self-cleavage was determined as 0.05.

As for G2A G33A A41C, the self-cleavage is 0.09.

Regarding G2A G19C U20G, the self-cleavage worked out at 0.04.

Consider G2C C18G G21C U28G G36C G44U, for which the self-cleavage turned out to be 0.03.

As to G2C G40C A41C, the self-cleavage was 0.09.

Turning to G2C C13U C37A G40A C45G, the self-cleavage stood at 0.29.

Regarding G2C G22C A25U C37U, the self-cleavage was 0.05.

On to G2A G7U U9C C10U, for which the self-cleavage is 0.03.

Turning to G2C C3G C31A G36A, the self-cleavage worked out at 0.02.

For G2C C3G G21A G30U, the self-cleavage was 0.55.

As to G2A U9C C42U, the self-cleavage came out at 0.05.

G2A G19A G36A: the self-cleavage stood at 0.46.

With G2C C13A G19U G29C U34A G35C A41G, the self-cleavage worked out at 0.13.

On to G2A G7C C15U G27A, for which the self-cleavage came to 0.39.

Take G2C G7U G44C: the self-cleavage is 0.09.

In the case of G2A U9G C10U G40A A41C C42U U43G, the self-cleavage was 0.02.

With G2C A6C C8U C10A, the self-cleavage was found to be 0.12.

For the variant G2A U9G U38G, the self-cleavage stood at 0.23.

Take G2A G7U C13U C15U: the self-cleavage was 0.53.

Consider G2C A26G U28C C42A, for which the self-cleavage worked out at 0.01.

Consider G2A G36C G44U, for which the self-cleavage came out at 0.19.

Regarding G2C C13U A14G G33U G40A U43A, the self-cleavage is 0.03.

Consider G2C G17U A26U U28G G40U, for which the self-cleavage turned out to be 0.22.

Take G2C U9A U28A: the self-cleavage was 0.16.

For the variant G2C G5C C10G C46A, the self-cleavage stood at 0.02.

G2C C3A A16C G17A G30A U43C: the self-cleavage is 0.02.

Consider G2C G30U U32G, for which the self-cleavage is 0.06.

Regarding G2C G35A C45G, the self-cleavage was determined as 0.02.

Turning to G2C C10A A16U C37A, the self-cleavage was determined as 0.03.

For the variant G2A G22C G30U, the self-cleavage is 0.79.

For G2C C10A C13A C18U A39C, the self-cleavage worked out at 0.03.

For G2C C15A C18G A26U, the self-cleavage came out at 0.12.

In the case of G2C C3A A14U U20C, the self-cleavage turned out to be 0.11.

Consider G2C A14C G27A G35A, for which the self-cleavage amounted to 0.02.

Turning to G2A G27U G35C A39G U43A, the self-cleavage stood at 0.01.

In the case of G2C G30A C37G C46U, the self-cleavage is 0.01.

Regarding G2C A4G G30U, the self-cleavage is 0.02.

Turning to G2C C10G C18G U28A, the self-cleavage is 0.01.

Consider G2C C15G C23U A25C G33U G36U, for which the self-cleavage amounted to 0.05.

G2C G5A C13A: the self-cleavage stood at 0.07.

In the case of G2C G5C U28A, the self-cleavage came out at 0.04.

G2C C3U U20G A25C: the self-cleavage amounted to 0.03.

For the variant G2C C10A C18U G30C C37U A39G, the self-cleavage amounted to 0.01.

Turning to G2C G17A G36A C45A, the self-cleavage stood at 0.2.

In the case of G2C G17U G30C U34C, the self-cleavage came out at 0.03.

In the case of G2A G22U U38A, the self-cleavage was 0.22.

With G2C G7C G44A, the self-cleavage was 0.54.

G2A U9C C13A G44U: the self-cleavage is 0.

In the case of G2C U9A G29U, the self-cleavage was found to be 0.08.

Consider G2C A4U A24C, for which the self-cleavage is 0.04.

G2C A24G G40A: the self-cleavage came out at 0.01.

On to G2C C15G A16U G19C A25C, for which the self-cleavage is 0.

As to G2A G7U C13A G22U, the self-cleavage stood at 0.05.

Consider G2C G21A C23A, for which the self-cleavage turned out to be 0.97.

For G2A U9C A14U G40A, the self-cleavage was 0.04.

As for G2A G22C G35C U43C, the self-cleavage stood at 0.09.

For the variant G2C A4U C15A G17U, the self-cleavage was found to be 0.05.

Regarding G2C C13A G17A C31A C42G, the self-cleavage was determined as 0.02.

Turning to G2C G29C C46A, the self-cleavage amounted to 0.15.

G2C A11G G21U C23A U43G C46A: the self-cleavage was 0.01.

Take G2C C31U A39U: the self-cleavage is 0.12.

G2A G22C C31A: the self-cleavage stood at 0.29.

In the case of G2C C13U U28G, the self-cleavage was 0.01.

For G2A G5U G19U U20A U28G U43C, the self-cleavage is 0.02.

Consider G2A U9G G33C, for which the self-cleavage was determined as 0.04.

Take G2A G7U A12U G36A: the self-cleavage amounted to 0.02.

As to G2A U9G G19A A24U C42A, the self-cleavage came to 0.09.

For the variant G2C A11G G21A A26C C31A, the self-cleavage was 0.01.

On to G2A G27A A41U, for which the self-cleavage was 0.65.

As to G2C A11C G17U C23A, the self-cleavage worked out at 0.02.

With G2C A6U G30U C31U, the self-cleavage came to 0.13.

G2A G27A C42G G44U: the self-cleavage amounted to 0.07.

In the case of G2C G17U C18G C23A G35C C37U U43A C45A, the self-cleavage amounted to 0.05.

As to G2C G7A C18A G19A, the self-cleavage was 0.92.

For the variant G2A G5C U20G A24G U32A, the self-cleavage was 0.06.

Take G2A G7U A12U A16C A25C U32G: the self-cleavage amounted to 0.04.

In the case of G2A G5U C10U, the self-cleavage turned out to be 0.07.

Consider G2A G5C C13U A24G C37U, for which the self-cleavage is 0.06.

As to G2C C3U A25C A41G U43G, the self-cleavage turned out to be 0.04.

Turning to G2C C15U C45A, the self-cleavage is 0.01.

As to G2C G22A G27A C46A, the self-cleavage was 0.18.

In the case of G2C C37A A39G C45U, the self-cleavage worked out at 0.18.

G2A U32A C46U: the self-cleavage worked out at 0.04.

As for G2C C15G U28G, the self-cleavage is 0.04.

G2A G22C C37A: the self-cleavage was found to be 0.08.

With G2A U20G G36A C42U, the self-cleavage worked out at 0.49.

For the variant G2A G5U G22C G30U G35C A39G, the self-cleavage was found to be 0.09.

Regarding G2C G5U U32G G35U, the self-cleavage turned out to be 0.07.

Turning to G2C G27U U32A U34G, the self-cleavage came to 0.01.

In the case of G2A G7C G30C, the self-cleavage was found to be 0.59.

Turning to G2A U20G G36A, the self-cleavage was determined as 0.19.

In the case of G2C A4G G5A A6G C8G A14G U20G, the self-cleavage was determined as 0.02.

With G2C A11U G21U, the self-cleavage turned out to be 0.04.

Take G2C G21A C42U: the self-cleavage stood at 0.29.

Regarding G2A G7U C18A G29U, the self-cleavage is 0.13.

Turning to G2A G7A A11C U34C, the self-cleavage stood at 0.04.

On to G2C A4C C8A C10U U43G, for which the self-cleavage was found to be 0.

In the case of G2C C3A U28C U34G C45G, the self-cleavage was found to be 0.04.

For G2A G27C U43C, the self-cleavage stood at 0.11.

Turning to G2A G5U C37U, the self-cleavage stood at 0.35.

For G2A G7U G40A G44A, the self-cleavage is 0.12.

As to G2C G27C C31A, the self-cleavage was 0.04.

Consider G2C G5A A6G A16G G35U, for which the self-cleavage came out at 0.52.

Take G2C A12U A24G G33C A39U: the self-cleavage is 0.01.

With G2C A6C U28A C31A, the self-cleavage amounted to 0.03.

For G2C G5U C10A G17U A25C U38C A41U, the self-cleavage is 0.04.

In the case of G2C G5U G44U, the self-cleavage worked out at 0.1.

In the case of G2C G21C G22A C37U, the self-cleavage was 0.

As to G2A G7U C18G G29C G30U, the self-cleavage was 0.06.

Regarding G2A G21U G29C C31U C46A, the self-cleavage worked out at 0.19.

Consider G2C A6G U28A, for which the self-cleavage came out at 0.09.

With G2C C10U C15A G19C G27A, the self-cleavage came out at 0.01.

With G2A U32G C42U, the self-cleavage is 0.38.

As to G2C C13A C15U C18U, the self-cleavage was 0.01.

Take G2C C10A G19C C23A: the self-cleavage stood at 0.01.

As for G2C A4C G5C G29A U32G, the self-cleavage came out at 0.05.

G2C C18A G21C C45U C46U: the self-cleavage turned out to be 0.06.

Consider G2C C13A G17C G29U G33A U34A, for which the self-cleavage stood at 0.11.

For G2C G35C C42A, the self-cleavage was determined as 0.03.

Regarding G2C C8U C13A A41U G44U, the self-cleavage is 0.03.

For the variant G2C A14U G40U C46U, the self-cleavage is 0.12.

In the case of G2C C15U G22U, the self-cleavage was determined as 0.05.

As to G2A G7C G21U C45A, the self-cleavage came to 0.02.

Turning to G2C A4C C13G G21A G35U U43C, the self-cleavage turned out to be 0.02.

In the case of G2C A6G G7U A11U, the self-cleavage is 0.02.

Turning to G2C C13U C23G A26C, the self-cleavage was 0.05.

As to G2A G22U C23A A24U A39C, the self-cleavage came out at 0.16.

On to G2C G29A G36A, for which the self-cleavage came to 0.2.

G2A G19A A41U C45G: the self-cleavage worked out at 1.47.

With G2C C10A A12G A25C A39G U43G, the self-cleavage came to 0.

As to G2C A12C G21U G36C U38G, the self-cleavage is 0.13.

Regarding G2C A4U A12C G19A G22C C23A A26C, the self-cleavage amounted to 0.01.

For the variant G2C U9G A11U G33C A39G C42G, the self-cleavage was 0.

In the case of G2C A11G C15A C23U A26G, the self-cleavage worked out at 0.02.

Consider G2C G7A C10A, for which the self-cleavage came out at 0.03.

As to G2C C31G G35U, the self-cleavage was determined as 0.02.

Consider G2C C13G G17A, for which the self-cleavage was 0.06.

Turning to G2A U32A U34G G44A, the self-cleavage stood at 0.09.

G2A G7U C15U G21A C46U: the self-cleavage came to 0.1.

Consider G2C G5U U28C G33A G35U G36U C42A G44A, for which the self-cleavage stood at 0.01.

Take G2C A6G G44A: the self-cleavage was determined as 0.02.

As to G2C C13A A26C U28A U32G C45A, the self-cleavage was 0.02.

As to G2C A6G G19U, the self-cleavage turned out to be 0.03.

G2C C15U G17U C42U: the self-cleavage was determined as 0.04.

As for G2C C3A C10A A12C A24U, the self-cleavage stood at 0.05.

Regarding G2C A4G C10G G17C C37A, the self-cleavage amounted to 0.01.

On to G2C G44U C45U, for which the self-cleavage was 0.47.

Regarding G2C G17A G21U A24U, the self-cleavage was determined as 0.01.

With G2A G22C C23U U28G C45G, the self-cleavage was found to be 0.17.

G2A G19A U43C: the self-cleavage amounted to 0.65.

In the case of G2C A11C C13U C23G A24U U28C, the self-cleavage was determined as 0.01.

For the variant G2A G5U C23A A24G U32C, the self-cleavage was 0.09.

Turning to G2C G17U U34G U38G, the self-cleavage came out at 0.02.

As to G2C G7C G29A C37G U38A, the self-cleavage was 0.09.

With G2C G7U C23G U32G, the self-cleavage was found to be 0.32.

In the case of G2C A4G A25C U38G, the self-cleavage worked out at 0.01.

In the case of G2C C15A G17C U38C, the self-cleavage was found to be 0.04.

For the variant G2C U9A C31A U32C, the self-cleavage was 0.09.

With G2C C8U G21U, the self-cleavage came to 0.11.

On to G2C A4G G19U A24C U28A G40A, for which the self-cleavage stood at 0.01.

On to G2A G36U A39U C42G, for which the self-cleavage stood at 0.05.

With G2C A14G G35A C37U, the self-cleavage was 0.06.

On to G2C C8U G27U U34A G40U, for which the self-cleavage is 0.04.

As for G2C C3U G5C A12C C13A A39C, the self-cleavage was found to be 0.05.

G2C A26C G36U: the self-cleavage stood at 0.1.

Regarding G2C A12C A25U A26G, the self-cleavage turned out to be 0.

For G2C G5C U9G C15A G27A, the self-cleavage came to 0.02.
